Data as given in US12521446B2, “Anti-CEACAM5 antibody drug conjugates” (Bristol-Myers Squibb Company, priority 2024, dated 2026).
Numbering of substitutions follows the chain as printed.

T1: full-length human CEACAM5 (Homo sapiens, UniProt P06731, T210S)
T1 construct: The SPR kinetics against full-length human and cyno CEACAM5 were set up as follows
T1 sequence (P06731 35-702 T210S): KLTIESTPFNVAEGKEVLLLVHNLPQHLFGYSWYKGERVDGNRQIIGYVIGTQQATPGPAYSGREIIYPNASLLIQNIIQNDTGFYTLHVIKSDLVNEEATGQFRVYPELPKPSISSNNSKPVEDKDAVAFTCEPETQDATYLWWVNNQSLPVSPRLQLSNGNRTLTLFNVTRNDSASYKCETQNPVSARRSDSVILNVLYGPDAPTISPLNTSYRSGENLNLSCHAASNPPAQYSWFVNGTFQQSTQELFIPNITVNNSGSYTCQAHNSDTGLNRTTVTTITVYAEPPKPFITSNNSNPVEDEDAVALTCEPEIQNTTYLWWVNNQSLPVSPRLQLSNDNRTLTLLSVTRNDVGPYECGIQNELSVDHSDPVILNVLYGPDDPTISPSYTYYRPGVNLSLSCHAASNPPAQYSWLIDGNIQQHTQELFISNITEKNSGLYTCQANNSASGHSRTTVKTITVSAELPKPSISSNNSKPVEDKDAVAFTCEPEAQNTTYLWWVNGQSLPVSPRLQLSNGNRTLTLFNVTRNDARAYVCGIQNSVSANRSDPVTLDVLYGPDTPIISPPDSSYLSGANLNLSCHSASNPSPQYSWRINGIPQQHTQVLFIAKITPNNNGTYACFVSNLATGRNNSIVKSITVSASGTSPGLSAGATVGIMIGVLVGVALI

T2: HCT116-huCEACAM5 (Homo sapiens, UniProt P06731, T210S)
T2 construct: expressed in transfected cells; host or cells: HCT-116
T2 sequence (P06731 35-676 T210S): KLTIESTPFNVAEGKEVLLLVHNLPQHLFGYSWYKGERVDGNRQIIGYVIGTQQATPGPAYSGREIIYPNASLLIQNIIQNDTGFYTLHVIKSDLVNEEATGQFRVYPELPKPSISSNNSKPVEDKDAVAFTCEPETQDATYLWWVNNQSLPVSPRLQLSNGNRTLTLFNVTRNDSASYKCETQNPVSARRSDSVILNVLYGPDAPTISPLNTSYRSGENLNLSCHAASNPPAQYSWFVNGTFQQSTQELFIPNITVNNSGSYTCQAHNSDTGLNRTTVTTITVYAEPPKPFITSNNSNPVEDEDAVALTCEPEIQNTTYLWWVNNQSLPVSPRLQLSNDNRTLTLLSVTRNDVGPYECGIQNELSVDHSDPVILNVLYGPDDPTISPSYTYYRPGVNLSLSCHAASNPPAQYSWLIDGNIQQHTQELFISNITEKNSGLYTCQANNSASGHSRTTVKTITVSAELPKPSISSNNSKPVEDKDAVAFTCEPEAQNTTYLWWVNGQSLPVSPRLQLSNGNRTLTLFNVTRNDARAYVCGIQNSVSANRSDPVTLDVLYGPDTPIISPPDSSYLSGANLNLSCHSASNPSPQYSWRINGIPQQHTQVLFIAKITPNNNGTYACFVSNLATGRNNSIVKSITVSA

B1: MBP004: hIgG1.3f progeny of MBN001; VH SEQ ID NO: 67, VL SEQ ID NO: 68 (antibody, V domains shown)
VH: QVQLVESGGGVVQPGRSLRLSCAASGITFSSHGMHWVRQAPGKGLEWVTFISYDGSYKSYVDSVKGRFTISRDNSKNTLYLQMNSLRAEDTAVYYCATGLTGTGAFDIWGQGTMVTVSS
VL: [about 100 residues not shown]
B2: MBP011: hIgG1.3f progeny of MBN001; VH SEQ ID NO: 81, VL SEQ ID NO: 82 (antibody, V domains shown)
VH: B1 VH with Y57I
VL: [about 100 residues not shown]YTFGQGTKLEIK
B3: MBP008: hIgG1.3f progeny of MBN001; VH SEQ ID NO: 75, VL SEQ ID NO: 76 (antibody, V domains shown)
VH: B1 VH with G104N, F106L
VL: [about 100 residues not shown]YTFGQGTKLEIK
B4: MBP006: hIgG1.3f progeny of MBN001; VH SEQ ID NO: 71, VL SEQ ID NO: 72 (antibody, V domains shown)
VH: B1 VH with K58I, F106N
VL: [about 100 residues not shown]

Tested on: MKN45
Assay: Internalization of progeny antibodies (Incucyte, pHrodo red), Example 9
Type: cell-based
Conditions: hIgG1.3 progeny, 25 nM mAb, Table 13A
Description: (§1) Antibodies were evaluated for internalization using HCT-116-huCEACAM5, HCT-116-cyCEACAM5, and MKN45 cell lines.
The MKN45 or Ls174T cells were seeded at 10K cells/well (50 uL).
(§2) Cell lines were first analyzed for cell density and viability using a Vi-cell viability machine. The cell lines were diluted to 0.2E6 vc/mL in growth media, and a volume (50 uL) of each was dispensed to a flat-bottom 96-well plate to achieve cell counts of 10K cells/well. Ls174T media included MEM with 10% HI-FBS and 1% pen/strep. MKN45 media included RPMI (ATCC modification) with 10% HI-FBS and 1% pen/strep. HCT-116 media included McCoy's 5a with 10% HI-FBS, 1% pen/strep, and 6 μg/mL Blasticidin. Cells were allowed to adhere to wells of the 96-well plate (Corning Cat. No. 3595) at 37° C./5% CO2 for approximately 4 hours.
(§3) Each test mAb and control mAb was labeled by first pre-mixing the respective antibody with a pHrodo red (Fab conjugated to pH-sensitive; Thermo cat #Z25612) secondary reagent at a 3:1 dye:mAb molar ratio. A series of dilutions were prepared at 2× target concentration in growth media. The final mAb target concentration was 25 nM. A volume (50 uL) of labeled mAb samples were added to the plated cells to achieve a target mAb concentration (25 nM).
(§4) Coated plates contacted with the labeled mAbs were incubated at 37° C. for 30 minutes. Each plate was then read using an Incucyte apparatus, which collected images from the red and phase channels [10× objective; 3 images/well] for a 24-hour duration, with reads of plates every 30 minutes.

Molecule | MKN45 24 hr red/phase AUC (internalization)
B1 | 3.79
B2 | 3.41
B3 | 4.15
B4 | 3.55

Biological target: T1, full-length human CEACAM5
Assay: SPR kinetics of progeny antibodies (BIACORE), Example 8
Type: binding
Conditions: hIgG1.3f progeny antibodies, Table 12A
Text: (§5) Antibody genes with single amino acid substitutions and combinations of substitutions were synthesized in IgG expression vectors, transiently transfected into HEK cells, and purified via Protein A. In addition, the framework germline reversions described above were also incorporated into the sequences of the progeny. Purified IgG1.3 CEACAM5 mAb clones were characterized using the BIACORE® for high-throughput SPR-based monoclonal characterization.
(§6) The BIACORE® instrument was primed with 1×HBSP+ running buffer (Cytiva catalog no.BR100671). The CM5 chip (Cytiva catalog no. 29149604) was equilibrated to room temperature, and the BIACORE® instrument was re-primed. A human antibody Fc capture kit (Cytiva catalog no. 29234600) was utilized for this analysis. The human antibody Fc capture reagent was immobilized to both flow cells in all 8 flow channels of the CM5 chip via amine-coupling using the following conditions. Immobilization was performed at a temperature of 25° C. The anti-human Fc capture reagent was diluted to a concentration of 25 μg/mL in acetate pH5 buffer. The chip surface was activated by injecting a mixture of 1-ethyl-3-(-3-dimethylaminopropyl) carbodiimide hydrochloride (EDC) and N-hydroxy succinimide (NHS) for 420 seconds at a rate of 10 microliters per minute (uL/min). A concentration (25 ug/mL) of anti-human Fc capture reagent was then injected on the surface for 420 seconds at a rate of 10 uL/min. The remaining chip surface was blocked by injecting ethanolamine for 420 seconds at a rate of 10 uL/min.
(§7) The SPR kinetics against full-length human and cyno CEACAM5 were set up as follows. The antibody capture was performed by diluting the antibodies to a concentration of 10 nM in HBSP+ buffer. The 10 nM mAbs were captured for 20 seconds at 5 uL/min to achieve capture levels of approximately 100RU. Analyte binding was performed by first making a titration series of full-length human and cyno CEACAM5 that were prepared (from 500 nM-0.23 nM) with three-fold dilutions in HBSP+ buffer. The association rate was 180 seconds at 30 uL/min. The dissociation rate was 600 seconds at 30 uL/min. Regeneration was performed using two injections of 3M magnesium chloride MgCl2 for 30 seconds at 30 uL/min. A data fit was performed using a 1:1 binding model with global Rmax. Rmax reflects the maximal response when all ligand is occupied.

Molecule | huCEACAM5 ka [M⁻¹ s⁻¹] | huCEACAM5 kd [s⁻¹]
B1 | 76000 | 0.00131
B2 | 47100 | 0.000671
B3 | 89200 | 0.000527
B4 | 85100 | 0.000513

Tested on: full-length cyno CEACAM5
Assay: as above
Type: binding, cynomolgus
Conditions: hIgG1.3f progeny antibodies, Table 12A
Text: as §5, §6, §7

Molecule | cyCEACAM5 ka [M⁻¹ s⁻¹] | cyCEACAM5 kd [s⁻¹]
B1 | 44100 | 0.00179
B2 | 42600 | 0.000823
B3 | 40300 | 0.000784
B4 | 48600 | 0.000793

Same assay, conditions: hIgG1.3f progeny antibodies, Table 12A; read-out: cyCEACAM5 KD

Molecule | Kd [nM]
B1 | 40.6
B2 | 19.3
B3 | 19.5
B4 | 16.3

Biological target: T2, HCT116-huCEACAM5
Assay: Internalization of progeny antibodies (Incucyte, pHrodo red), Example 9
Type: cell-based
Conditions: hIgG1.3 progeny, 25 nM mAb, Table 13A
Description: as §1, §2, §3, §4

Molecule | HCT116-huCEACAM5 red/phase AUC (internalization)
B1 | 1.14
B2 | 1.07
B3 | 1.13
B4 | 1.14

Tested on: HCT116-cyCEACAM5
Assay: as above
Type: cell-based, cynomolgus
Conditions: not given
Description: as §1, §2, §3, §4
Internalization of negative control mAbs was not observed.

Molecule | internalization to cynoCEACAM-5 expressing cells
B1 | efficiently internalized

Same assay, conditions: hIgG1.3 progeny, 25 nM mAb, Table 13A

Molecule | HCT116-cyCEACAM5 red/phase AUC (internalization)
B1 | 2.50
B2 | 2.35
B3 | 2.54
B4 | 2.40
